# In PubChem BioAssay AID624296 (National Center for Advancing Translational Sciences (NCATS), 2012):
# Where “and” joins values, the source holds several entries; their conditions need not be identical. Equal entries are not always repeated. Hit rate of the full screen: of about 350,000 compounds, about 9,900 (2.8%) were called active. Inconclusive results, whose numbers are uncertain, are shown with a selection of clear calls. Calls follow the shape of the dose curve; as a rule, active = well fitted activation curve with a large enough effect; inconclusive = small, poorly fitted or top-dose-only effect; inactive = no such curve, though single readings can be large or run the other way. Where the call is inconclusive, the potency comes from a doubtful curve fit.
# Assay: A quantitative high throughput screen for small molecules that induce DNA re-replication in MCF 10a normal breast cells. Also: nearly all actives have a fitted effect of over 50% in size.
# Settings: MCF 10A DNA re-replication, Hoechst nuclear intensity, 48 h; series mostly up to 46.1 µM
# Potency is read from the fitted curve at half-maximal effect; tags tell the direction and shape of the fitted curve.
row,Compound,Potency
1,Cc1cc(C)n(CC(=O)N2CCCC(N3CCN(c4ccc(F)cc4)CC3)C2)n1 (stereo unspecified),"inconclusive: 25.9 µM [activator, partial curve, poor fit]"
2,O=S(=O)(c1ccc(Br)cc1)n1ccc2ccccc21,"inconclusive: 14.6 µM [activator, partial curve]"
3,COc1ccc2c(c1)OC[C@H]1[C@H]2N2C(=O)c3ccc(F)cc3NC(=O)[C@@]2(C)[C@H]1c1ccccc1,"inconclusive: 29.1 µM [activator, single point]"
4,Nc1nc2ccccc2n1/N=C/c1ccc([N+](=O)[O-])s1,inactive
5,COc1ccc(NC(=O)c2ccc(=O)oc2)cc1,"inconclusive: 29.1 µM [activator, single point]"
6,CCOC(=O)C(CSCc1ccccc1)NC(=O)OC(C)(C)C (stereo unspecified),"inconclusive: 29.1 µM [activator, single point]"
7,Cc1ccc(S(=O)(=O)O/N=C2\CCCc3ccccc32)cc1,"inconclusive: 6.31 µM [activator, partial curve, poor fit]"
8,COC(=O)c1c(C)[nH]c(C(=O)/C=C/c2ccc(Cl)cc2)c1C,"inconclusive: 29.1 µM [activator, single point]"
9,Cc1cccc(-n2cnc3c(c2=O)c2nc4ccccc4nc2n3Cc2ccco2)c1,"inconclusive: 29.1 µM [activator, single point]"
10,CN1CCCC1CCNc1ccc2c(=O)c3ccccc3oc2c1 (stereo unspecified),active: 18.4 µM
11,CN(C)S(=O)(=O)c1ccc(N2CCCC2)c(C(=O)NNC(=O)COc2cccc(F)c2)c1,inactive
12,COc1ccc(OC)c(NC(=O)c2cccc(S(=O)(=O)N(Cc3ccccc3)c3ccccc3OC)c2)c1,"inconclusive: 3.66 µM [activator, single point]"
13,CC(=O)c1c(C)[nH]c(C(=O)OCC(=O)N2CCc3ccccc32)c1C,"inconclusive: 5.8 µM [activator, single point]"
14,O=C(NNC(=S)NC1CC2CCC1C2)c1ccc(Cl)cc1 (stereo unspecified),"inconclusive: 32.6 µM [activator, partial curve, poor fit]"
15,CC1CCN(C(=O)CCc2nnc(-c3ccccc3)o2)CC1,inactive
16,Cc1nc2sc(C(c3ccco3)N3CCN(c4cccc(Cl)c4)CC3)c(O)n2n1 (stereo unspecified),"inconclusive: 29.1 µM [activator, single point]"
17,CC(=O)Nc1cc(C(F)(F)F)ccc1OCCOc1ccccc1,"inconclusive: 29.1 µM [activator, partial curve, poor fit]"
18,CC1CCCC(NC(=O)COC(=O)c2n[nH]c3ccccc23)C1C (stereo unspecified),"inconclusive: 16.4 µM [activator, partial curve, poor fit]"
19,O=C(CN1CCN(c2nc(-c3ccc(Cl)cc3)cs2)CC1)NCc1ccco1,active: 9.2 µM
20,Cc1cccc(Cn2cnc3c(nnn3Cc3ccccc3F)c2=O)c1,"inconclusive: 29.1 µM [activator, partial curve, poor fit]"
21,CSCCC(NC(=O)c1ccccc1)C(=O)NCCc1ccc2c(c1)OCCO2 (stereo unspecified),"inconclusive: 29.1 µM [activator, single point]"
22,CCCCn1c(NS(=O)(=O)c2ccccc2)c(S(=O)(=O)c2ccc(C)cc2)c2nc3ccccc3nc21,"inconclusive: 0.82 µM [activator, full curve, poor fit]"

row,Compound,Potency
1,Cc1ccc(Cn2ccsc2=NC(=O)CCl)cc1,"inconclusive: 29.1 µM [activator, single point]"
2,CCCCCCOc1ccc(NC(=O)CC2C(=O)N(CC)C(=S)N2Cc2ccco2)cc1 (stereo unspecified),active: 18.4 µM
3,CCOc1ccccc1C(=O)N1CCC(C(=O)c2ccc(F)cc2)CC1,"inconclusive: 6.51 µM [activator, partial curve, poor fit]"
4,COc1ccc(N2CCN(C(c3cccc(OC)c3OC)c3nnnn3C3CCCC3)CC2)cc1 (stereo unspecified),"inconclusive: 0.651 µM [activator, full curve, poor fit]"
5,CCOC(=O)C1=C(CSc2nc(-c3ccncc3)ccc2C#N)OC(N)=C(C#N)C1c1cccnc1 (stereo unspecified),"inconclusive: 23.1 µM [activator, single point]"
6,c1ccc(-c2nnc(SCC3CCCO3)nc2-c2ccccc2)cc1 (stereo unspecified),"inconclusive: 6.51 µM [activator, single point]"
7,CN(CCCn1cnc2c(OCc3ccccc3)ncnc21)CCc1ccccn1,"inconclusive: 0.092 µM [activator, full curve, poor fit]"
8,CCOC(=O)c1c(NC(=O)CN2C(=O)NC(C)(c3ccc(Cl)cc3)C2=O)sc(C(=O)NC)c1C (stereo unspecified),"inconclusive: 29.1 µM [activator, single point]"
9,Cc1cc(=O)oc2c(C)c(OC(C)C(=O)NCC3CCC(C(=O)O)CC3)ccc12 (stereo unspecified),"inconclusive: 6.51 µM [activator, partial curve, poor fit]"
10,Cc1ccc(-c2noc(C3CCCN(C(=O)c4ccc(F)cc4F)C3)n2)cc1 (stereo unspecified),"inconclusive: 20.6 µM [activator, single point]"
11,COc1ccc(N2CCN(CCCNC(=O)c3ccc(CS(=O)(=O)c4ccc(Cl)cc4)o3)CC2)cc1,"inconclusive: 25.9 µM [activator, single point]"
12,CCOC(=O)Cn1c(=O)c2c(nc(N3CCOCC3)n2C)n(C)c1=O,inactive
13,O=c1oc2ccccc2c(Nc2cc3ccccc3cc2O)c1[N+](=O)[O-],active: 2.06 µM
14,O=C(Cc1ccccc1[N+](=O)[O-])N/N=C/c1cccnc1,inactive
15,CCN(Cc1ccccc1)C(=O)c1cccc(S(=O)(=O)N2CCN(c3ccccc3)CC2)c1,inactive
16,N#CCCn1nc(-c2ccccc2)cc1Nc1ccccc1NC(=O)c1cccs1,inactive
17,O=c1cc(C(F)(F)C(F)F)oc2ccccc12,"inconclusive: 25.9 µM [activator, single point]"
18,O=C(O)CSc1nc2sc3c(c2c(=O)n1Cc1ccccc1)CCCCC3,"inconclusive: 29.1 µM [activator, single point]"
19,COc1ccc(C2CC(c3ccccc3)=NN2C(=O)COC(=O)c2cc(S(=O)(=O)N3CCOCC3)ccc2F)cc1 (stereo unspecified),"inconclusive: 32.6 µM [activator, partial curve, poor fit] and inconclusive: 16.4 µM [activator, partial curve, poor fit]"
20,CC(=O)Nc1ccc2nc(-c3ccco3)[nH]c2c1,"inconclusive: 32.6 µM [activator, partial curve, poor fit]"
21,O=C(c1cccc2ccccc12)N1CCN=C1SCc1ccc([N+](=O)[O-])cc1,inactive
22,COc1ccc(C(=O)Oc2c(OC)cc(C(=S)N3CCOCC3)cc2OC)cc1OC,inactive

row,Compound,Potency
1,O=C(COC(=O)C1COc2ccccc2O1)Nc1ccccc1OC(F)F (stereo unspecified),inactive
2,COc1ccc(NC(=O)c2cc(-c3ccc(OC)c(OC)c3)nc3ccccc23)c(OC)c1,"inconclusive: 18.4 µM [activator, partial curve, poor fit]"
3,Cc1ccc(S(=O)(=O)N(C)Cc2ccc(C(=O)N/N=C3\CCCC(=O)C3)cc2)cc1,"inconclusive: 29.1 µM [activator, single point]"
4,CCCc1ccc(-c2cc(C(=O)NCCc3ccc(S(N)(=O)=O)cc3)c3ccccc3n2)cc1,inactive
5,COc1ccc(/C=N/n2c(SC)nnc2-c2ccccc2)cc1C,active: 18.4 µM
6,CC(C)c1ccc(NC2CCCN(C(=O)c3ccco3)C2)cc1 (stereo unspecified),"inconclusive: 25.9 µM [activator, partial curve, poor fit]"
7,COc1ccc(OC)c(NC(=O)COC(=O)c2nc(Cl)ccc2Cl)c1,inactive
8,CC(=O)OCC1=C(C(=O)O)N2C(=O)C(NC(=O)CCn3nc(C(F)(F)F)c(Br)c3C3CC3)C2SC1 (stereo unspecified),"inconclusive: 29.1 µM [activator, single point]"
9,O=C(OCC(O)CO)c1ccccc1Nc1ccnc2cc(Cl)ccc12 (stereo unspecified),inactive
10,CCOc1ccccc1NC(=O)CSc1nc2ccccc2nc1N1CCCC1,active: 14.6 µM
11,CCOC(=O)c1c2ccc(OCC(=O)NN)cc2n2ccccc12,active: 16.4 µM
12,CCOc1ccc(/C=N/NC(=O)c2ccccc2NC(=O)c2ccc(OC)cc2)cc1,inactive
13,CCOC(=O)N1CCN(S(=O)(=O)c2ccc(C(=O)Nc3nc4ccc(F)cc4s3)cc2)CC1,active: 16.4 µM
14,Cc1ccc2nc(-c3ccc(NC(=O)CN(c4ccccc4C)S(C)(=O)=O)cc3)sc2c1,"inconclusive: 20.6 µM [activator, single point]"
15,O=C(N[C@@H]1CCC(=O)N(CC[C@H](Sc2ccc(Br)cc2)c2ccccc2)CC1)OCc1ccccc1,"inconclusive: 8.2 µM [activator, partial curve, poor fit]"
16,OCCN1CCN(CC#CCC(c2ccccc2)c2ccccc2)CC1,inactive
17,O=C(O)c1cc(-c2cccnc2)nc2ccccc12,"inconclusive: 18.4 µM [activator, single point]"
18,COc1ccc(OC)c(-c2cc(C(=O)N/N=C/c3cc(OC)c(OC)cc3OC)c3ccccc3n2)c1,"inconclusive: 29.1 µM [activator, partial curve, poor fit]"
19,CCOC(=O)C1=C(NC(=S)NC(=O)c2ccccc2)c2ccccc2CC1C(C)C (stereo unspecified),"inconclusive: 11.2 µM [activator, partial curve, poor fit]"
20,O=C1CC(c2ccccc2)CC(=O)C1Sc1ccc(Cl)cc1 (stereo unspecified),inactive
21,O=C1Nc2ccc(Br)cc2/C1=C/C(=O)c1ccccc1,active: 18.4 µM
22,COC(=O)c1sccc1NC(=O)CC1C(=O)NCCN1C(=O)Nc1cc(Cl)ccc1OC (stereo unspecified),inactive
